Earlier results as cited in publication PMC11006913.
This is one part of the list.

Target: PITX2 L100Q (Homo sapiens) (UniProt Q99697)
Details: PBM; conditions not shown; double strand, one strand shown; scale: upbm affinity estimate (log intensity, higher = more binding, comparable within an allelic series)

Sequence	binding signal
CGGTTTAG [8-mer CGGTTTAG]	9.63
CCGTCGCG [8-mer CCGTCGCG]	8.34
GAACTGGC [8-mer GAACTGGC]	8.12
CGGGACCA [8-mer CGGGACCA]	8.26
AGATTCAT [8-mer AGATTCAT]	9.12
GCGCAGAC [8-mer GCGCAGAC]	8.31
TGGCTTAA [8-mer TGGCTTAA]	10.8
CTAAGCCA [8-mer CTAAGCCA]	10.3
ATAATCCG [8-mer ATAATCCG]	11.4
GAGATTAA [8-mer GAGATTAA]	11.3
CCCGTGTC [8-mer CCCGTGTC]	8.28
GAGAGCCC [8-mer GAGAGCCC]	8.2
GGATTACC [8-mer GGATTACC]	11.2
CTATAATC [8-mer CTATAATC]	10.6
ACCGGGGC [8-mer ACCGGGGC]	8.16
CCCTAGGG [8-mer CCCTAGGG]	8.49
CGTTAATC [8-mer CGTTAATC]	10.9
CCGGTTGC [8-mer CCGGTTGC]	8.38
AGTAATCC [8-mer AGTAATCC]	11.2
GGCTTAAC [8-mer GGCTTAAC]	11

Sequence	binding signal
ATAAATCC [8-mer ATAAATCC]	10.8
ATTAAGCC [8-mer ATTAAGCC]	11.1
ATTTAATC [8-mer ATTTAATC]	10.9
CTGGATTA [8-mer CTGGATTA]	11.4
CGGGGTCC [8-mer CGGGGTCC]	7.99
CCCAGGCC [8-mer CCCAGGCC]	8.1
GCCCTCAC [8-mer GCCCTCAC]	8.3
AGATTAAC [8-mer AGATTAAC]	11
ACTTAGGC [8-mer ACTTAGGC]	9.63
CGGCCCCC [8-mer CGGCCCCC]	7.93
TAGATTAA [8-mer TAGATTAA]	10.9
CGTGGCAC [8-mer CGTGGCAC]	8.25
AAGCTATA [8-mer AAGCTATA]	9.71
CGGCTTAA [8-mer CGGCTTAA]	10.7
GGCCGGAC [8-mer GGCCGGAC]	8.31
CCGCGCCG [8-mer CCGCGCCG]	8.08
CCGGCCAA [8-mer CCGGCCAA]	8.31
AGGATTAG [8-mer AGGATTAG]	11.6
GATTAATC [8-mer GATTAATC]	11.5
